Not every detail of the peptide structures is certain; ends, links or a residue may be inferred. Some compounds share one wording; it may come from a single statement. Square brackets hold non-standard residues; d marks the D form. Peptide text beside a SMILES is read from it. * marks the point of attachment. Stearoyl = CCCCCCCCCCCCCCCCCC(=O)*; dNle = CCCC[C@@H](N)C(=O)O; Nle = CCCC[C@H](N)C(=O)O; Abu = CC[C@H](N)C(=O)O
Tested on: penile reflexes in castrated rats
Experiment: Penile reflexes (E2, cups) in castrated rats after transdermal application
Type: in vivo, rat
Conditions: for No. of E2 / No. of cups: Table 3, topical
Protocol: (a) The ointment composition was: 31.2 μl 10% Sefsol 318™ (glyceryl monocaprylate), and either 0.24 mg stearoyl-VIP in 31.2 μl DMSO (1-2μl per animal) (SEFS in FIG. 1) or 0.24 rig stearoyl-Nle^17 -VIP in the above (SEFS* in FIG. 1).
(b) For other analogs described hereinafter 10 μl of solution were used per animal containing 7 μg of active material in a vehicle containing 5% Sefsol and 20% isopropanol.
In a further set of experiments the effects of stearoyl-VIP compounded with Sefsol 318™ were compared with those of stearoyl-Nle^17 -VIP compounded with Sefsol 318™.
In a second type of biological experiments the effects of compositions containing other modified VIP conjugates compounded with Sefsol 318™ were tested.
Rats with reduced sexual potential due to castration were employed. Male rats (250-300 g, about three month old) were kept in a 12-hours light, 12-hours dark cycle. Experiments were always conducted within the dark period, 2-6 hours after the onset of darkness. Male rats were castrated and given partial testosterone replacement (4 μg/100 g body weight) in the form of daily injection for 14-21 consecutive days (the duration of the experiment). Experiments were conducted one week following surgery.
A procedure was utilized that employed the technique that measures sexual reflexes in the penis, which enables direct evaluation of penile erection following transdermal administration of the drug. Successful reproduction depends, in large part, upon the precise execution of temporally organized, functionally related behavioural units. In these experiments, we concentrated on the final stages of the erection process (reddening of the penis accompanied by its distension and extension leading to complete erection) and monitored the latency time to the first E2 and first cup(^14).
For testing, each animal was restrained in a supine position with the anterior portion of its body enclosed in a loosely fitting cylinder (7 cm diam). After a belt was secured around the torso, the glans penis was extruded from its sheath and gently held perpendicular to the abdomen by a thin wooden applicator positioned at the posterior of the penis. The legs of the male were held by the observer and this position was maintained throughout the test period. The duration of the session was 45 minutes. The latencies and numbers of E2 and cups were recorded and plotted.
An E2 is defined as a complete erection which can be followed by cup in which the penile tip is turned into a cup-like structure, whereby the glands flare out such that the penis is wider in its distal portion than its base. This final stage requires E2 and is probably a pre-requisite for ejaculation (13). Using, all the parameters one can obtain a reliable measure of the sexual activity of the tested rat.
Six to ten animals were tested in this paradigm for each variable. Control animals received ointment compositions without the modified VIP conjugate.

[1] = 7 μg in 5% Sefsol and 20% isopropanol, 45 min session

SMILES | No. of E2 [1] | No. of cups [1] | number of E2, various modified conjugates compared to vehicle control (topical, 7 μg in 5% Sefsol and 20% isopropanol, FIG. 5) | number of cups, various modified conjugates compared to vehicle control (topical, 7 μg in 5% Sefsol and 20% isopropanol, FIG. 6) | number of E2 during the test period (topical, in Sefsol 318 ointment, 45 min session, FIG. 3) | number of cups (topical, in Sefsol 318 ointment, 45 min session, FIG. 4)
CCCCCCCCCCCCCCCCCC(=O)N[C@@H](Cc1c[nH]cn1)C(=O)N[C@@H](CO)C(=O)N[C@@H](CC(=O)O)C(=O)N[C@@H](C)C(=O)N[C@H](C(=O)N[C@@H](Cc1ccccc1)C(=O)N[C@H](C(=O)N[C@@H](CC(=O)O)C(=O)N[C@@H](CC(N)=O)C(=O)N[C@@H](Cc1ccc(O)cc1)C(=O)N[C@H](C(=O)N[C@@H](CCCNC(=N)N)C(=O)N[C@@H](CC(C)C)C(=O)N[C@@H](CCCNC(=N)N)C(=O)N[C@@H](CCCCN)C(=O)N[C@@H](CCC(N)=O)C(=O)N[C@@H](CC)C(=O)N[C@@H](C)C(=O)N[C@H](C(=O)N[C@@H](CCCCN)C(=O)N[C@@H](CCCCN)C(=O)N[C@@H](Cc1ccc(O)cc1)C(=O)N[C@@H](CC(C)C)C(=O)N[C@@H](CC(N)=O)C(=O)N[C@@H](CO)C(=O)N[C@H](C(=O)N[C@@H](CC(C)C)C(=O)N[C@@H](CC(N)=O)C(N)=O)[C@@H](C)CC)C(C)C)[C@@H](C)O)[C@@H](C)O)C(C)C [St Val Abu* Val] (Stearoyl-HSDAVFTDNYTRLRKQ[Abu]AVKKYLNSILN-NH2) | 9.25 ± 1.3 | 23.25 ± 5.1 |  |  |  | 
CCCCCCCCCCCCCCCCCC(=O)N[C@@H](Cc1c[nH]cn1)C(=O)N[C@@H](CO)C(=O)N[C@@H](CC(=O)O)C(=O)N[C@@H](C)C(=O)N[C@H](C(=O)N[C@@H](Cc1ccccc1)C(=O)N[C@H](C(=O)N[C@@H](CC(=O)O)C(=O)N[C@@H](CC(N)=O)C(=O)N[C@@H](Cc1ccc(O)cc1)C(=O)N[C@H](C(=O)N[C@@H](CCCNC(=N)N)C(=O)N[C@@H](CC(C)C)C(=O)N[C@@H](CCCNC(=N)N)C(=O)N[C@@H](CCCCN)C(=O)N[C@@H](CCC(N)=O)C(=O)N[C@@H](C)C(=O)N[C@@H](C)C(=O)N[C@H](C(=O)N[C@@H](CCCCN)C(=O)N[C@@H](CCCCN)C(=O)N[C@@H](Cc1ccc(O)cc1)C(=O)N[C@@H](CC(C)C)C(=O)N[C@@H](CC(N)=O)C(=O)N[C@@H](CO)C(=O)N[C@H](C(=O)N[C@@H](CC(C)C)C(=O)N[C@@H](CC(N)=O)C(N)=O)[C@@H](C)CC)C(C)C)[C@@H](C)O)[C@@H](C)O)C(C)C [St Val Ala* Val] (Stearoyl-HSDAVFTDNYTRLRKQAAVKKYLNSILN-NH2) | 10 ± 0 | 24.5 ± 0.5 |  |  |  | 
CCCCCCCCCCCCCCCCCC(=O)N[C@@H](Cc1c[nH]cn1)C(=O)N[C@@H](CO)C(=O)N[C@@H](CC(=O)O)C(=O)N[C@@H](C)C(=O)N[C@H](C(=O)N[C@@H](Cc1ccccc1)C(=O)N[C@H](C(=O)N[C@@H](CC(=O)O)C(=O)N[C@@H](CC(N)=O)C(=O)N[C@@H](Cc1ccc(O)cc1)C(=O)N[C@H](C(=O)N[C@@H](CCCNC(=N)N)C(=O)N[C@@H](CC(C)C)C(=O)N[C@@H](CCCNC(=N)N)C(=O)N[C@@H](CCCCN)C(=O)N[C@@H](CCC(N)=O)C(=O)N[C@H](C(=O)N[C@@H](C)C(=O)N[C@H](C(=O)N[C@@H](CCCCN)C(=O)N[C@@H](CCCCN)C(=O)N[C@@H](Cc1ccc(O)cc1)C(=O)N[C@@H](CC(C)C)C(=O)N[C@@H](CC(N)=O)C(=O)N[C@@H](CO)C(=O)N[C@H](C(=O)N[C@@H](CC(C)C)C(=O)N[C@@H](CC(N)=O)C(N)=O)[C@@H](C)CC)C(C)C)[C@@H](C)CC)[C@@H](C)O)[C@@H](C)O)C(C)C [St Val Ile* Val] (Stearoyl-HSDAVFTDNYTRLRKQIAVKKYLNSILN-NH2) | 115 ± 0.5 | 32 ± 0 |  |  |  | 
CCCCCCCCCCCCCCCCCC(=O)N[C@@H](Cc1c[nH]cn1)C(=O)N[C@@H](CO)C(=O)N[C@@H](CC(=O)O)C(=O)N[C@@H](C)C(=O)N[C@H](C(=O)N[C@@H](Cc1ccccc1)C(=O)N[C@H](C(=O)N[C@@H](CC(=O)O)C(=O)N[C@@H](CC(N)=O)C(=O)N[C@@H](Cc1ccc(O)cc1)C(=O)N[C@H](C(=O)N[C@@H](CCCNC(=N)N)C(=O)N[C@@H](CC(C)C)C(=O)N[C@@H](CCCNC(=N)N)C(=O)N[C@@H](CCCCN)C(=O)N[C@@H](CCC(N)=O)C(=O)N[C@@H](Cc1c[nH]c2ccccc12)C(=O)N[C@@H](C)C(=O)N[C@H](C(=O)N[C@@H](CCCCN)C(=O)N[C@@H](CCCCN)C(=O)N[C@@H](Cc1ccc(O)cc1)C(=O)N[C@@H](CC(C)C)C(=O)N[C@@H](CC(N)=O)C(=O)N[C@@H](CO)C(=O)N[C@H](C(=O)N[C@@H](CC(C)C)C(=O)N[C@@H](CC(N)=O)C(N)=O)[C@@H](C)CC)C(C)C)[C@@H](C)O)[C@@H](C)O)C(C)C [St Val Trp* Val] (Stearoyl-HSDAVFTDNYTRLRKQWAVKKYLNSILN-NH2) | 12 ± 1.0 | 30 ± 6 |  |  |  | 
CCCCCCCCCCCCCCCCCC(=O)N[C@@H](Cc1c[nH]cn1)C(=O)N[C@@H](CO)C(=O)N[C@@H](CC(=O)O)C(=O)N[C@@H](C)C(=O)N[C@H](C(=O)N[C@@H](Cc1ccccc1)C(=O)N[C@H](C(=O)N[C@@H](CC(=O)O)C(=O)N[C@@H](CC(N)=O)C(=O)N[C@@H](Cc1ccc(O)cc1)C(=O)N[C@H](C(=O)N[C@@H](CCCNC(=N)N)C(=O)N[C@@H](CC(C)C)C(=O)N[C@@H](CCCNC(=N)N)C(=O)N[C@@H](CCCCN)C(=O)N[C@@H](CCC(N)=O)C(=O)N[C@H](CCCC)C(=O)N[C@@H](C)C(=O)N[C@H](C(=O)N[C@@H](CCCCN)C(=O)N[C@@H](CCCCN)C(=O)N[C@@H](Cc1ccc(O)cc1)C(=O)N[C@@H](CC(C)C)C(=O)N[C@@H](CC(N)=O)C(=O)N[C@@H](CO)C(=O)N[C@H](C(=O)N[C@@H](CC(C)C)C(=O)N[C@@H](CC(N)=O)C(N)=O)[C@@H](C)CC)C(C)C)[C@@H](C)O)[C@@H](C)O)C(C)C [St Val dNle* Val] (Stearoyl-HSDAVFTDNYTRLRKQ[dNle]AVKKYLNSILN-NH2) | 10 ± 13 | 27 ± 5.1 |  |  |  | 
CCCCCCCCCCCCCCCCCC(=O)N[C@@H](Cc1c[nH]cn1)C(=O)N[C@@H](CO)C(=O)N[C@@H](CC(=O)O)C(=O)N[C@@H](C)C(=O)N[C@@H](CC(C)C)C(=O)N[C@@H](Cc1ccccc1)C(=O)N[C@H](C(=O)N[C@@H](CC(=O)O)C(=O)N[C@@H](CC(N)=O)C(=O)N[C@@H](Cc1ccc(O)cc1)C(=O)N[C@H](C(=O)N[C@@H](CCCNC(=N)N)C(=O)N[C@@H](CC(C)C)C(=O)N[C@@H](CCCNC(=N)N)C(=O)N[C@@H](CCCCN)C(=O)N[C@@H](CCC(N)=O)C(=O)N[C@@H](CCCC)C(=O)N[C@@H](C)C(=O)N[C@H](C(=O)N[C@@H](CCCCN)C(=O)N[C@@H](CCCCN)C(=O)N[C@@H](Cc1ccc(O)cc1)C(=O)N[C@@H](CC(C)C)C(=O)N[C@@H](CC(N)=O)C(=O)N[C@@H](CO)C(=O)N[C@H](C(=O)N[C@@H](CC(C)C)C(=O)N[C@@H](CC(N)=O)C(N)=O)[C@@H](C)CC)C(C)C)[C@@H](C)O)[C@@H](C)O [St-Leu^5, Nle^17 -VIP, St-Leu^5 -Nle^17 -VIP] (Stearoyl-HSDALFTDNYTRLRKQ[Nle]AVKKYLNSILN-NH2) | 9.25 ± 0.25 | 22.75 ± 2.35 | significantly higher number of E2 than control | significantly higher number of cups than control |  | 
CCCCCCCCCCCCCCCCCC(=O)N[C@@H](Cc1c[nH]cn1)C(=O)N[C@@H](CO)C(=O)N[C@@H](CC(=O)O)C(=O)N[C@@H](C)C(=O)N[C@H](C(=O)N[C@@H](Cc1ccccc1)C(=O)N[C@H](C(=O)N[C@@H](CC(=O)O)C(=O)N[C@@H](CC(N)=O)C(=O)N[C@@H](Cc1ccc(O)cc1)C(=O)N[C@H](C(=O)N[C@@H](CCCNC(=N)N)C(=O)N[C@@H](CC(C)C)C(=O)N[C@@H](CCCNC(=N)N)C(=O)N[C@@H](CCCCN)C(=O)N[C@@H](CCC(N)=O)C(=O)N[C@@H](CCSC)C(=O)N[C@@H](C)C(=O)N[C@H](C(=O)N[C@@H](CCCCN)C(=O)N[C@@H](CCCCN)C(=O)N[C@@H](Cc1ccc(O)cc1)C(=O)N[C@@H](CC(C)C)C(=O)N[C@@H](CC(N)=O)C(=O)N[C@@H](CO)C(=O)N[C@H](C(=O)N[C@@H](CC(C)C)C(=O)N[C@@H](CC(N)=O)C(N)=O)[C@@H](C)CC)C(C)C)[C@@H](C)O)[C@@H](C)O)C(C)C [St-VIP, stearoyl-VIP, reference compound] |  |  |  |  | 24 | 12

— patent publication US5998368A, “Derivatives of structurally modified VIP and pharmaceutical compositions containing them” (Yeda Research and Development Co. Ltd., priority 1991, dated 1999)
